Reference: PMC9889916, “Linear ubiquitination induces NEMO phase separation to activate NF-κB signaling” (Life Science Alliance, 2023)

Target: T1, recombinant M1-linked tetra-ubiquitin (UniProt P0CG48 part only; P0CG48 part only; P0CG48 part only; P0CG48 part only)
T1 construct: ubiquitin moiety 1 of 4, joined head to tail on one chain (synthetic codon-optimised gene); ubiquitin moiety 2 of 4; ubiquitin moiety 3 of 4; ubiquitin moiety 4 of 4; One polypeptide of four ubiquitin moieties; also called 4×M1-ub; linear tetra-ubiquitin; source: E. coli BL21 (DE3) pLysS, purified (GSTrap, PreScission cleavage, CaptoQ flow-through)
Test: other fluorescence titration; steady-state intrinsic fluorescence (excitation 295 nm, emission 333 nm); NEMO fixed at 15 µM or Q330X NEMO at 5 µM, 4×M1-ub varied 0-30 µM (NEMO) or up to 70 µM (Q330X NEMO); 25°C, 10 mM Tris–HCl pH 7.4; fit to an equivalent and independent binding site model
Details: both partners purified

B1: untagged WT NEMO purified from insect cells (natural protein)
chain: not shown
notes: the printed primers run from codon 2, directly behind the 3C site, to the stop codon after E419; printed mass of the cleaved protein 48,221 D; also called His-MBP-WT NEMO (before cleavage); source: Sf9 insect cells (baculovirus), purified (Ni-NTA, on-column HRV-3C cleavage, size exclusion); not shown: His, N-terminal, cleaved; MBP, N-terminal, cleaved
Work on B1 yielded a Ka of 5e+06 M⁻¹.
